Here are results for 167 variants from the RNAGym collection of RNA variant scans (doi:10.7554/elife.90254).

The source gives no read counts; variants with many changes may rest on few reads.

B1: LINE1-mini (parent)
chain: GGCAGAGCUCAACACAGCGUGGCAAAGUGGCUGUGGCUAGACUGCC

In this data set the parent is B1. In words: self-cleavage, relative activity (ratio to wild type); higher = more cleavage; in vitro, sequencing; the parent is a self-cleaving ribozyme.
For the variant G2U A14C U28A C46U, the self-cleavage is 0.
The value for G2U C15U A26G was 0.02; that for G2U C23U G40A C42U was 0.05.
The value for G2U G21A A24G C46U was 0.07; that for G2U C13U G27U was 0.07; that for G2U A4G G17A U20G C23A A39C was 0.02.
The value for G2U C23U G40C C42G was 0.01.
Consider G2C G19U U32C U43C, for which the self-cleavage came to 0.08.
In the case of G2U G35U U38G, the self-cleavage amounted to 0.
The value for G2U C3A A16U A26U was 0.11; that for G2U C10U G33U G35A G44U was 0.01.
For G2U C15U C18G, the self-cleavage worked out at 0.04.
The value for G2C G21U U28G G40U was 0.03; that for G2U C10U A14U G19A was 0.
As to G2U G36A C46A, the self-cleavage turned out to be 0.14.
The value for G2U G5U C15A C18U G22A U28G was 0.01; that for G2C G27U G44A was 0.16.
Turning to G2U A16C G17U, the self-cleavage was 0.02.
Take G2U A12G U43G G44C: the self-cleavage is 0.02.
As for G2U C10A C18A A25G, the self-cleavage was determined as 0.02.
The value for G2U C3U A4U A12G C37A was 0.05; that for G2U U9A G19A G21U was 0.01.
The value for G2U G21A G36C was 0.03.
Consider G2C G27A G40C, for which the self-cleavage stood at 0.03.
The value for G2U C3A U9A A11U A16U was 0.03.
The value for G2C G36U U38A was 0.05; that for G2U G7A C8G C23U A39G was 0.05; that for G2U A26G G35U was 0.02.
As to G2C G30C U34G G36U, the self-cleavage was 0.03.
As to G2U G7A A14C U38G, the self-cleavage is 0.02.
The value for G2C G27A U38A C46G was 0.04; that for G2U A25G A41U was 0.02; that for G2U G22U U32G G33U C37G was 0.09.
The value for G2U G17C G35A G36A was 0.07; that for G2C G21A C23U G35C U43C was 0.32; that for G2U C10U C15A U20C G21U A25U was 0.02.
On to G2U C15A G19C G22U, for which the self-cleavage was determined as 0.02.
The value for G2U G7C U20C U32G was 0.01.
The value for G2U U9A G21C U28G was 0.01; that for G2U G7U A12C U28C G44A was 0; that for G2U C18U C42G was 0.05.
The value for G2U C10A A11U was 0.02; that for G2U G44U C45A C46A was 0.01.
As to G2U C8G G27C C37G C45A, the self-cleavage came out at 0.01.
G2U A4C G5A C8A A16C C18A G35C: the self-cleavage was found to be 0.13.
The value for G2U G7C A25C G35A was 0.04.
The value for G2U A16U A25U was 0.01.
Consider G2C U9A C45U, for which the self-cleavage is 0.07.
The value for G2U U9A C13U G27U was 0.01; that for G2U A4U U28A C46G was 0.03; that for G2U C3A C10A G36A was 0.03.
As to G2U C10A A25U G29U G44C, the self-cleavage came to 0.01.
The value for G2U C10U A11C C13G G35U C42A was 0.02; that for G2U A11G A24G U38G C42A was 0.01; that for G2U G7A C15U U20A A24C A39C was 0.05.
The value for G2C U9G A25G A26G C31U U32C was 0.03.
For G2U G5A C31A U32A, the self-cleavage was 0.03.
The value for G2U A14U G30U G36A C42G U43G was 0.13; that for G2U G5C G30A G40A was 0.02.
The value for G2U A4C G21A U28C G44A was 0.1; that for G2C G33U C37U U43C was 0.02; that for G2U C8U A14U G17U U28C was 0.06.
On to G2U G7U C10A, for which the self-cleavage was 0.
As to G2U G5C A11U C15A U20C A24G G29C U34A C45A, the self-cleavage was found to be 0.
For G2U A12G G21U A39U, the self-cleavage is 0.01.
Consider G2U C10G A16G G27C, for which the self-cleavage stood at 0.01.
Regarding G2U A11U A26G, the self-cleavage amounted to 0.01.
As for G2U A26G G44U, the self-cleavage is 0.12.
In the case of G2U A14G G30C U38G C42G, the self-cleavage came out at 0.03.
On to G2U A6U G44U, for which the self-cleavage came to 0.1.
The value for G2C U32C A39C C42U was 0.01.
The value for G2U G36A C42G G44A was 0.01.
The value for G2U A4C A11U A14C was 0.02; that for G2U G19C G21U G22A was 0.33; that for G2U G21C G36U A41G was 0.03.
G2U A25C U43C C46A: the self-cleavage came to 0.
Regarding G2U C3A U28A A39U, the self-cleavage stood at 0.21.
Consider G2C G22C A26C, for which the self-cleavage is 0.07.
For the variant G2U A4U C8U, the self-cleavage was determined as 0.11.
Consider G2U C3A G30U G36A, for which the self-cleavage was 0.15.
The value for G2C G30C G33C was 0.17; that for G2U A6G U20C C45U was 0.02.
On to G2C U28C G35C U43G C46U, for which the self-cleavage was 0.01.
As to G2U C3A C8G C13G U28A, the self-cleavage turned out to be 0.05.
Turning to G2U A4G C10A G22A A39U G40A, the self-cleavage was determined as 0.01.
As for G2U G27U C37U C42U C46U, the self-cleavage was 0.14.
With G2U C13G A14G G17C G33U U43A, the self-cleavage stood at 0.
The value for G2U A6G A12G G17C G19C U34A was 0.
The value for G2C U38G C42A C46G was 0.02.
The value for G2U G7A G19A G22U G30C was 0.05; that for G2U C8G G40U was 0.02; that for G2U A12G C46A was 0.03.
Regarding G2U A4U G5C C46G, the self-cleavage worked out at 0.04.
As for G2U C13G G35C A39C, the self-cleavage was determined as 0.03.
The value for G2U C15G G22U was 0.03; that for G2U C8A G27C was 0.02.
The value for G2U G7C G17U A26G A39C was 0.04; that for G2U A24U G27U was 0.03.
Take G2U G19C A26G: the self-cleavage is 0.03.
For G2U C31U C42G, the self-cleavage is 0.01.
Regarding G2U C15A A24U, the self-cleavage was determined as 0.02.
The value for G2U G5C A26G G29A C37G G40U was 0.03; that for G2U C15G G33A U43A was 0.06; that for G2U C31U U32G was 0.04.
The value for G2U G7U G19A A24U G30U G33U G40U C42A was 0.05; that for G2U A16G C18A was 0; that for G2U A11C G21A A24U G35C C45U was 0.
As for G2C G36U U43G, the self-cleavage was determined as 0.
Take G2U G27C A41U G44A: the self-cleavage is 0.05.
For the variant G2U A24U G30A C42G G44A, the self-cleavage was 0.01.
Regarding G2C U9G U38G C45G, the self-cleavage amounted to 0.02.
The value for G2U U9C G17A C37U U38A C45A was 0.
The value for G2C U20C A39C C42A was 0.03; that for G2U C8A U34G was 0.01; that for G2U C8A A26G U32A was 0.01.
As for G2U A12C C15A C46A, the self-cleavage turned out to be 0.01.
In the case of G2C G21C U43C, the self-cleavage worked out at 0.05.
Regarding G2U A11U A25U G35A, the self-cleavage was 0.03.
G2U C3U G17U G40U C46A: the self-cleavage came to 0.04.
G2U G5U C10A G35U G36C: the self-cleavage came out at 0.02.
On to G2U A6C U28G, for which the self-cleavage was determined as 0.02.
The value for G2U G30U A39U was 0.06; that for G2U A26U A39G was 0.02; that for G2C G33A U34C was 0.03.
The value for G2U U9C C23U G29U G36U C45G was 0.04; that for G2C U20C G33U C37A A41G C46A was 0.02; that for G2U A14U C15G G36A G40U was 0.02.
The value for G2U C3U A6C G22A G40A was 0.02.
With G2U C13A C18G G44C, the self-cleavage is 0.01.
As to G2U G7A G27A, the self-cleavage turned out to be 0.13.
As to G2U G35A A39C C46U, the self-cleavage came to 0.05.
The value for G2U A4C U9G G17A was 0.03.
With G2U U9A C37G, the self-cleavage was found to be 0.07.
Take G2U G5U G7A C13A G27U G29C C31A: the self-cleavage was found to be 0.11.
As to G2U C13A C15G G40U, the self-cleavage turned out to be 0.09.
Consider G2U G17C A24U, for which the self-cleavage is 0.03.
Take G2U C3U G30C G33A G40A: the self-cleavage was 0.04.
Consider G2U A6U C18U G22A, for which the self-cleavage turned out to be 0.23.
The value for G2U C23U U28G was 0.04.
Turning to G2U C15U G22C, the self-cleavage turned out to be 0.03.
In the case of G2U G7U U20G, the self-cleavage came to 0.02.
The value for G2U A26U G30C U32A C46U was 0.02; that for G2C G22A C42G C46G was 0.01.
Turning to G2C U28C U32C G35A C37A A39G, the self-cleavage stood at 0.04.
The value for G2U C3U G21U C23A C37G was 0.01; that for G2U G19C U32G G44A was 0.02; that for G2C G33C G35U G40C was 0.02.
The value for G2U C8U C15G was 0.01; that for G2U C13U G33U C42G was 0.08; that for G2U A6U G21A A26C was 0.06.
The value for G2U A26G C42U C45A C46U was 0.03; that for G2U A14C U32G was 0.21; that for G2U G29C C37A was 0.
For G2U G5A C10G G30C G33A C37A A39G, the self-cleavage was found to be 0.01.
The value for G2U G5C G21C A25G U32A G44U was 0; that for G2U C18U U34A C42A was 0.02; that for G2U A12C G17A was 0.02.
Take G2U C8U A39G: the self-cleavage was found to be 0.05.
Take G2U A4C C18A: the self-cleavage came out at 0.07.
The value for G2U G44U C46G was 0.03; that for G2C U32C C46U was 0.13; that for G2U A14U A24C U34A U38G was 0.04.
Regarding G2U U9G A14G U20G, the self-cleavage was 0.04.
G2U A4U A25U C45G: the self-cleavage is 0.08.
As for G2U A4C G17C G30U, the self-cleavage worked out at 0.01.
The value for G2U G5U G19A A39G was 0.1; that for G2C U9A A25G C37G was 0.11.
